This is one part of the list.

Drawing on publication PMC12820563, “FoxP3 forms a head-to-head dimer in vivo and stabilizes its multimerization on adjacent microsatellites”, this text covers binding signal for 40 sequences.

This experiment concerns the target T1, MBP-FoxP1dN (Mus musculus, UniProt P58462 326-579).
T1 sequence: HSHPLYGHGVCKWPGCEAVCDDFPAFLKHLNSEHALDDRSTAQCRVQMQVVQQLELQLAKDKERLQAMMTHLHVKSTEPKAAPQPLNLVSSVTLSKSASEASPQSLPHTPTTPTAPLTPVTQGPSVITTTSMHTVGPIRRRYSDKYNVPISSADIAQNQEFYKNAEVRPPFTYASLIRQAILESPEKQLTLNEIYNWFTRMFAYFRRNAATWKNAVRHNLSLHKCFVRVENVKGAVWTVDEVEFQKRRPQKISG
Description: PD-seq (MBP pull-down with sequencing); 20 mM Tris-HCl pH 7.5, 100 mM NaCl, 1.5 mM MgCl2, 0.4 uM protein, 0.1 uM dsDNA library, 30 min, room temperature, amylose pull-down; high values mean tight binding. To be noted: protein: recombinant; tags: His6-MBP; chain copies: 2; dsDNA, one strand shown. In short, it runs like this: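 A fragment of mouse FoxP3 or FoxP1 without its N-terminus, carrying a His6-MBP tag and produced in E. coli, was combined at 0.4 µM with a 0.1 µM degenerate double-stranded DNA library filled in with Klenow. The mixture sat for 30 min at room temperature in Tris pH 7.5 buffer containing NaCl and MgCl2. Protein–DNA complexes were captured on amylose resin, washed three times, and the DNA was freed with proteinase K, barcoded by PCR and sequenced on Illumina. Binding is expressed as reads-per-million enrichment of pull-down over input, with replicates pooled.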
For “GATGATTGTTCTCCCAGCTGATGAATTGAGACTCTCGAGTAAACAAATTTTCCTAATCTTTCTGTTCAAGCGCCATCTAC”, the binding signal is 0.822 RPM ratio (pull-down/input).
Regarding “GATGATTGTTCTCCCAGCTGATGAATTCCGAGTATCGAGTAAACAAATTTTCCTAATCTTTCTGTTCAAGCGCCATCTAC”, the binding signal was 0.918 RPM ratio (pull-down/input).
As for “GATGATTGTTCTCCCAGCTGATGAATTGAGCCTGTCGAGTAAACAAATTTTCCTAATCTTTCTGTTCAAGCGCCATCTAC”, the figure is 0.804 RPM ratio (pull-down/input); as for “GATGATTGTTCTCCCAGCTGATGAATTAATTATATCGAGTAAACAAATTTTCCTAATCTTTCTGTTCAAGCGCCATCTAC”, 1.11 RPM ratio (pull-down/input); as for “GATGATTGTTCTCCCAGCTGATGAATTCGTGCGTTCGAGTAAACAAATTTTCCTAATCTTTCTGTTCAAGCGCCATCTAC”, 1.01 RPM ratio (pull-down/input).
As for “GATGATTGTTCTCCCAGCTGATGAATTATGGAGATCGAGTAAACAAATTTTCCTAATCTTTCTGTTCAAGCGCCATCTAC”, the figure is 0.886 RPM ratio (pull-down/input).
For “GATGATTGTTCTCCCAGCTGATGAATTCTTGAAGTCGAGTAAACAAATTTTCCTAATCTTTCTGTTCAAGCGCCATCTAC” the value was 0.868 RPM ratio (pull-down/input); for “GATGATTGTTCTCCCAGCTGATGAATTTCCGCAGTCGAGTAAACAAATTTTCCTAATCTTTCTGTTCAAGCGCCATCTAC”, 0.873 RPM ratio (pull-down/input); for “GATGATTGTTCTCCCAGCTGATGAATTCGGGGGCTCGAGTAAACAAATTTTCCTAATCTTTCTGTTCAAGCGCCATCTAC”, 0.717 RPM ratio (pull-down/input).
As to “GATGATTGTTCTCCCAGCTGATGAATTTTTTCTGTCGAGTAAACAAATTTTCCTAATCTTTCTGTTCAAGCGCCATCTAC”, the binding signal was 0.986 RPM ratio (pull-down/input).
Regarding “GATGATTGTTCTCCCAGCTGATGAATTAGAGGTCTCGAGTAAACAAATTTTCCTAATCTTTCTGTTCAAGCGCCATCTAC”, the binding signal was 0.802 RPM ratio (pull-down/input).
For “GATGATTGTTCTCCCAGCTGATGAATTGCTTTACTCGAGTAAACAAATTTTCCTAATCTTTCTGTTCAAGCGCCATCTAC” the value was 1.01 RPM ratio (pull-down/input); for “GATGATTGTTCTCCCAGCTGATGAATTCCCCGGATCGAGTAAACAAATTTTCCTAATCTTTCTGTTCAAGCGCCATCTAC”, 0.788 RPM ratio (pull-down/input); for “GATGATTGTTCTCCCAGCTGATGAATTTGTACCATCGAGTAAACAAATTTTCCTAATCTTTCTGTTCAAGCGCCATCTAC”, 1.17 RPM ratio (pull-down/input).
As for “GATGATTGTTCTCCCAGCTGATGAATTGAGTAAGTCGAGTAAACAAATTTTCCTAATCTTTCTGTTCAAGCGCCATCTAC”, the figure is 0.921 RPM ratio (pull-down/input).
For “GATGATTGTTCTCCCAGCTGATGAATTTCTGGCCTCGAGTAAACAAATTTTCCTAATCTTTCTGTTCAAGCGCCATCTAC” the value was 0.797 RPM ratio (pull-down/input); for “GATGATTGTTCTCCCAGCTGATGAATTCACAGTCTCGAGTAAACAAATTTTCCTAATCTTTCTGTTCAAGCGCCATCTAC”, 0.839 RPM ratio (pull-down/input); for “GATGATTGTTCTCCCAGCTGATGAATTCCCGATCTCGAGTAAACAAATTTTCCTAATCTTTCTGTTCAAGCGCCATCTAC”, 0.712 RPM ratio (pull-down/input).
Turning to “GATGATTGTTCTCCCAGCTGATGAATTGTATGGATCGAGTAAACAAATTTTCCTAATCTTTCTGTTCAAGCGCCATCTAC”, the binding signal was 1.04 RPM ratio (pull-down/input).
For “GATGATTGTTCTCCCAGCTGATGAATTAGCATCTTCGAGTAAACAAATTTTCCTAATCTTTCTGTTCAAGCGCCATCTAC” the value was 1.39 RPM ratio (pull-down/input); for “GATGATTGTTCTCCCAGCTGATGAATTTAACTGCTCGAGTAAACAAATTTTCCTAATCTTTCTGTTCAAGCGCCATCTAC”, 0.898 RPM ratio (pull-down/input); for “GATGATTGTTCTCCCAGCTGATGAATTTTTATTCTCGAGTAAACAAATTTTCCTAATCTTTCTGTTCAAGCGCCATCTAC”, 1.06 RPM ratio (pull-down/input).
As for “GATGATTGTTCTCCCAGCTGATGAATTGGAGGTGTCGAGTAAACAAATTTTCCTAATCTTTCTGTTCAAGCGCCATCTAC”, the figure is 0.821 RPM ratio (pull-down/input); as for “GATGATTGTTCTCCCAGCTGATGAATTGCTTGTTTCGAGTAAACAAATTTTCCTAATCTTTCTGTTCAAGCGCCATCTAC”, 1.43 RPM ratio (pull-down/input); as for “GATGATTGTTCTCCCAGCTGATGAATTAGCGAATTCGAGTAAACAAATTTTCCTAATCTTTCTGTTCAAGCGCCATCTAC”, 0.968 RPM ratio (pull-down/input).
For the sequence “GATGATTGTTCTCCCAGCTGATGAATTCAGTTCATCGAGTAAACAAATTTTCCTAATCTTTCTGTTCAAGCGCCATCTAC”, the binding signal was 0.935 RPM ratio (pull-down/input).
On to “GATGATTGTTCTCCCAGCTGATGAATTGACTTGATCGAGTAAACAAATTTTCCTAATCTTTCTGTTCAAGCGCCATCTAC”, for which the binding signal is 0.925 RPM ratio (pull-down/input).
For “GATGATTGTTCTCCCAGCTGATGAATTCCTGGGATCGAGTAAACAAATTTTCCTAATCTTTCTGTTCAAGCGCCATCTAC” the value was 0.853 RPM ratio (pull-down/input).
As for “GATGATTGTTCTCCCAGCTGATGAATTTACATAGTCGAGTAAACAAATTTTCCTAATCTTTCTGTTCAAGCGCCATCTAC”, the figure is 1.42 RPM ratio (pull-down/input); as for “GATGATTGTTCTCCCAGCTGATGAATTTGCCCACTCGAGTAAACAAATTTTCCTAATCTTTCTGTTCAAGCGCCATCTAC”, 0.934 RPM ratio (pull-down/input); as for “GATGATTGTTCTCCCAGCTGATGAATTCAGCAACTCGAGTAAACAAATTTTCCTAATCTTTCTGTTCAAGCGCCATCTAC”, 0.923 RPM ratio (pull-down/input).
With “GATGATTGTTCTCCCAGCTGATGAATTAGTGGCGTCGAGTAAACAAATTTTCCTAATCTTTCTGTTCAAGCGCCATCTAC”, the binding signal was 0.994 RPM ratio (pull-down/input).
As to “GATGATTGTTCTCCCAGCTGATGAATTACCGACGTCGAGTAAACAAATTTTCCTAATCTTTCTGTTCAAGCGCCATCTAC”, the binding signal was 0.917 RPM ratio (pull-down/input).
As for “GATGATTGTTCTCCCAGCTGATGAATTGGGGTATTCGAGTAAACAAATTTTCCTAATCTTTCTGTTCAAGCGCCATCTAC”, the figure is 0.899 RPM ratio (pull-down/input).
For “GATGATTGTTCTCCCAGCTGATGAATTACCTACCTCGAGTAAACAAATTTTCCTAATCTTTCTGTTCAAGCGCCATCTAC” the value was 0.913 RPM ratio (pull-down/input); for “GATGATTGTTCTCCCAGCTGATGAATTTGGCTCATCGAGTAAACAAATTTTCCTAATCTTTCTGTTCAAGCGCCATCTAC”, 0.876 RPM ratio (pull-down/input); for “GATGATTGTTCTCCCAGCTGATGAATTTGCCGCATCGAGTAAACAAATTTTCCTAATCTTTCTGTTCAAGCGCCATCTAC”, 1.12 RPM ratio (pull-down/input).
As for “GATGATTGTTCTCCCAGCTGATGAATTTCATGAGTCGAGTAAACAAATTTTCCTAATCTTTCTGTTCAAGCGCCATCTAC”, the figure is 0.825 RPM ratio (pull-down/input).
Consider “GATGATTGTTCTCCCAGCTGATGAATTTAACGGGTCGAGTAAACAAATTTTCCTAATCTTTCTGTTCAAGCGCCATCTAC”, for which the binding signal is 0.906 RPM ratio (pull-down/input).
As for “GATGATTGTTCTCCCAGCTGATGAATTATGTTTTTCGAGTAAACAAATTTTCCTAATCTTTCTGTTCAAGCGCCATCTAC”, the figure is 2.19 RPM ratio (pull-down/input).
